# Reference: the supplement of paper PMC9446081
# Out of some 39,000 compounds screened, about 220 (0.56%) showed activity. This is one part of the list.
# Tested on: Escherichia coli K-12 BW25113
# Test: relative growth (OD600 normalised to plate interquartile mean) (fraction); higher = less growth inhibition, active = 0.2 or less
# Conditions: 50 µM; LB; incubation time: overnight (16-24 h)
# 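Note: static incubation at 37 °C against the wild-type strain, values averaged over two biological replicates.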
row,SMILES,relative growth
1,C[C@H]1CN([C@@H](C)CO)C(=O)c2cccc(NC(=O)c3cnccn3)c2O[C@H]1CN(C)S(=O)(=O)c1cccs1,inactive: 0.978
2,CO[C@H]1CN(C)C(=O)c2ccc(NC(=O)CC(F)(F)F)cc2OC[C@H](C)N(C(=O)C2CCOCC2)C[C@@H]1C,inactive: 1.01
3,CCC(C)C1OC2(CCC1C)CC1CC(CC=C(C)C(OC3CC(OC)C(OC4CC(OC)C(O)C(C)O4)C(C)O3)C(C)C=CC=C3COC4C(O)C(C)=CC(C(=O)O1)C34O)O2 (centres undefined),inactive: 0.891
4,CCC(CCC(C)C1CCC2C3CC=C4CC(OC(C)=O)CCC4(C)C3CCC12C)C(C)C (centres undefined),inactive: 1.15
5,COc1cc(C(=O)OCCCN2CCCN(CCOC(=O)c3cc(OC)c(OC)c(OC)c3)CC2)cc(OC)c1OC,inactive: 0.958
6,Cc1cc(C(=O)Nc2cccc3c2O[C@H](CN(C)S(=O)(=O)c2cccs2)[C@H](C)CN([C@H](C)CO)C3=O)n(C)n1,inactive: 0.987
7,C[C@@H]1CCCCO[C@H](CN(C)C(=O)NC2CCCCC2)[C@H](C)CN([C@H](C)CO)C(=O)c2cc(NC(=O)c3ccncc3)ccc2O1,inactive: 0.978
8,C[N+](C)(CCOc1ccccc1)Cc1ccccc1.O=C([O-])c1cc2ccccc2cc1O,inactive: 0.93
9,C[C@@H]1CCCCO[C@H](CN(C)Cc2ccc(C(=O)O)cc2)[C@@H](C)CN([C@@H](C)CO)C(=O)c2cc(NC(=O)Nc3ccccc3)ccc2O1,inactive: 0.974
10,COc1ccc(S(=O)(=O)N2C[C@H](O)COC[C@H]3O[C@H](CC(=O)N[C@H]4CCN(Cc5ccccc5)C4)CC[C@@H]32)cc1,inactive: 0.99
11,COc1ccc(CN(C)C[C@@H]2Oc3ccc(NS(=O)(=O)c4c(C)noc4C)cc3CC(=O)N([C@H](C)CO)C[C@H]2C)cc1,inactive: 0.994
12,CO[C@@H]1CN(C)C(=O)c2cc(NC(=O)C3CC3)ccc2OC[C@H](C)N(C(=O)C2CCOCC2)C[C@H]1C,inactive: 0.989
13,COC(=O)N/N=C/c1ccc([N+](=O)[O-])o1,active: 0.0393
14,Cc1noc(C)c1S(=O)(=O)Nc1ccc2c(c1)C(=O)N([C@@H](C)CO)C[C@H](C)[C@@H](CN(C)S(=O)(=O)c1cn(C)cn1)OCCCC[C@H](C)O2,inactive: 0.997
15,C[C@H]1CCCCO[C@@H](CN(C)C(=O)Nc2ccc3c(c2)OCO3)[C@@H](C)CN([C@@H](C)CO)C(=O)c2cc(NS(=O)(=O)c3ccccc3)ccc2O1,inactive: 0.975
16,COc1ccc(S(=O)(=O)N(C)C[C@@H]2Oc3ccc(NS(=O)(=O)c4ccccc4)cc3CC(=O)N([C@@H](C)CO)C[C@@H]2C)cc1,inactive: 0.995
17,Cc1ccc(S(=O)(=O)Nc2ccc3c(c2)CC(=O)N([C@H](C)CO)C[C@@H](C)[C@@H](CN(C)Cc2ccc(Oc4ccccc4)cc2)O3)cc1,inactive: 1
18,CO[C@@H]1[C@@H](O[C@@H]2O[C@H](C)[C@@H](O[C@H]3C[C@@](C)(O)[C@@H](OC(=O)CC(C)C)[C@H](C)O3)[C@H](N(C)C)[C@H]2O)[C@@H](CC=O)C[C@@H](C)[C@@H](O)/C=C\C=C/C[C@@H](C)OC(=O)C[C@H]1OC(C)=O,inactive: 0.957
19,CCc1nc2ccc(C(=O)N3CCN(S(=O)(=O)CC)CC3)cn2c1N(C)C(=O)c1cccc(OC)c1,inactive: 0.997
20,C[C@@H]1CN([C@@H](C)CO)C(=O)c2cccc(NC(=O)c3ccc(-c4nccs4)cc3)c2O[C@@H]1CN(C)Cc1ccc(-c2ccccc2)cc1,inactive: 0.983

row,SMILES,relative growth
1,C[C@H](CO)N1C[C@H](C)[C@@H](CN(C)Cc2ccc(C(=O)Nc3ccccc3N)cc2)Oc2ccc(NC(=O)Nc3ccc(C(F)(F)F)cc3)cc2C1=O,inactive: 0.984
2,O=C(C[C@@H]1C[C@H]2c3cc(NS(=O)(=O)c4ccc(F)cc4)ccc3O[C@H]2[C@@H](CO)O1)NCc1ccc(Oc2ccccc2)cc1,inactive: 1
3,C[C@H](CO)N1C[C@H](C)[C@@H](CN(C)S(=O)(=O)c2ccc(F)cc2)Oc2ccc(NC(=O)C3CC3)cc2CC1=O,inactive: 0.991
4,C[C@H](CO)N1C[C@H](C)[C@@H](CN(C)C(=O)Nc2ccc3c(c2)OCO3)Oc2ccc(NC(=O)Nc3cccc4ccccc34)cc2CC1=O,inactive: 0.971
5,C[C@@H]1CN([C@H](C)CO)C(=O)c2cc(NC(=O)NC3CCCCC3)ccc2O[C@@H](C)CCCCO[C@H]1CN(C)C(=O)C1CCCCC1,inactive: 0.993
6,CCC(CO)NCCNC(CC)CO.Cl.Cl (centres undefined),inactive: 1.05
7,O=C(C[C@@H]1CC=CCC[C@@H](Cc2ccc(F)cc2)C(=O)OC[C@H](Cc2ccccc2)NC1=O)NCCO,inactive: 0.992
8,COc1ccc(NC(=O)Nc2ccc3c(c2)C(=O)N([C@@H](C)CO)C[C@@H](C)[C@H](CN(C)C(=O)Nc2c(C)noc2C)OCCCC[C@@H](C)O3)cc1,inactive: 0.967
9,CO[C@H](CN(C)S(=O)(=O)c1cccc(Cl)c1)[C@H](C)CN([C@H](C)CO)S(=O)(=O)c1cccc(Cl)c1,inactive: 1.03
10,O=C(N/N=C/[C@H](O)[C@@H](O)[C@@H](O)[C@H](O)C(=O)O)c1ccccn1,inactive: 1.01
11,C[C@H]1CN([C@@H](C)CO)S(=O)(=O)c2ccc(-c3cccc(C#N)c3)cc2O[C@@H]1CN(C)C(=O)c1ccncc1,inactive: 0.99
12,C[C@]12C(=O)N(CCCCCO)[C@@H]3C(=O)N(c4ccc(Cl)cc4)CC=C[C@]31O[C@@H]1/C=C\CCCOC(=O)[C@H]12,inactive: 0.967
13,C=CCN(CCCC)C(=O)[C@H]1N(C(C)(C)CO)C(=O)[C@H]2[C@H](C(=O)O)[C@@H]3C=C[C@@]21O3,inactive: 1.02
14,C[C@H]1CC=CC[C@@H](c2cccc(Cl)c2)NC(=O)[C@H](Cc2ccccc2)N(C)C(=O)c2ccccc2O1,inactive: 1.03
15,CC(=O)Nc1cccc(NC(C)=O)n1,inactive: 0.983
16,C[C@@H]1CN([C@@H](C)CO)C(=O)c2cc(C#CC3CC3)cnc2O[C@H]1CN(C)S(=O)(=O)c1cccc(F)c1,inactive: 1.01
17,COCC(=O)N1C[C@H](C)[C@H](OC)CN(C)C(=O)c2ccc(NC(=O)c3cc(C)on3)cc2OC[C@@H]1C,inactive: 0.999
18,CC(=O)N(C)C[C@@H]1Oc2ncc(C#C[C@@H](C)O)cc2C(=O)N([C@H](C)CO)C[C@H]1C,inactive: 1.01
19,CC(C)(C)[S@@](=O)N1Cc2cc(C(=O)N3CCc4ccccc4C3)nc(-c3cccc(-c4cccnc4)c3)c2[C@H]1CCO,inactive: 1.03
20,COC(=O)c1ccc2c(c1)NC(=O)CO2,inactive: 0.995

row,SMILES,relative growth
1,c1ccc(-c2nc3ccccc3o2)cc1,inactive: 0.985
2,c1ccc(Nc2nc3c(ccc4ccccc43)s2)cc1,inactive: 0.901
3,C[C@H]1CN([C@@H](C)CO)C(=O)c2cccc(NS(C)(=O)=O)c2O[C@H]1CN(C)C(=O)NC1CCCCC1,inactive: 1.02
4,C[C@@H]1CN([C@@H](C)CO)C(=O)Cc2cc(NS(=O)(=O)c3ccc(Cl)cc3)ccc2O[C@@H]1CN(C)Cc1ccc(Cl)c(Cl)c1,inactive: 1.03
5,C[C@H](CO)N1C[C@H](C)[C@H](CN(C)C(=O)[C@H](C)c2ccccc2)OCc2ccccc2-c2c(n(C)c3ccccc23)C1=O,inactive: 0.995
6,CCCN(C)C[C@H]1OCCCC[C@@H](C)Oc2ccc(NC(=O)Cc3ccccc3)cc2C(=O)N([C@H](C)CO)C[C@H]1C,inactive: 1
7,O=C(N[C@@H]1C=C[C@@H](CC(=O)N2CCOCC2)O[C@H]1CO)c1ccccn1,inactive: 1
8,C[C@@H]1CN([C@@H](C)CO)C(=O)c2cc(NS(C)(=O)=O)ccc2O[C@H]1CN(C)S(=O)(=O)c1cccs1,inactive: 0.999
9,C[C@H]1CC/C=C\[C@H]2O[C@@]34C=CCN(Cn5nnc6ccccc65)C(=O)[C@H]3N(CCO)C(=O)[C@@H]4[C@@H]2C(=O)O1,inactive: 0.996
10,COc1ccc(NC(=O)Nc2ccc3c(c2)C(=O)N([C@@H](C)CO)C[C@@H](C)[C@H](CN(C)C(=O)CCC(F)(F)F)OCCCC[C@H](C)O3)cc1,inactive: 0.837
11,O=C(C[C@@H]1CC[C@@H](NS(=O)(=O)c2ccc(F)cc2)[C@H](CO)O1)N1CCC(Cc2ccccc2)CC1,inactive: 0.998
12,O=C1CCOC[C@@H]2CCCN12,inactive: 0.98
13,COc1ccc(CN(C)C[C@H]2OCCCC[C@H](C)Oc3ccc(NC(=O)Nc4ccc(C(F)(F)F)cc4)cc3C(=O)N([C@@H](C)CO)C[C@H]2C)cc1,inactive: 1.01
14,C[C@@H]1CN([C@H](C)CO)C(=O)c2cccc(NC(=O)CCCCCC(=O)Nc3ccccc3N)c2O[C@H]1CN(C)C(=O)Nc1cccc2ccccc12,inactive: 0.964
15,CO[C@H]1CN(C)C(=O)c2ccc(NS(=O)(=O)CC(F)(F)F)cc2OC[C@@H](C)N(C(=O)NC(C)C)C[C@H]1C,inactive: 1.01
16,O=C(C[C@H]1C[C@@H]2c3cc(NC(=O)C4CCOCC4)ccc3O[C@@H]2[C@H](CO)O1)NCc1ccc2c(c1)OCO2,inactive: 0.898
17,O=C1O[C@H](c2ccccc2)[C@H](c2ccccc2)N2[C@H]1[C@@H](C(=O)Nc1nc3ccccc3s1)[C@]1(C(=O)Nc3ccc(C#CCCO)cc31)[C@H]2c1ccccc1OCCO,inactive: 1.05
18,C[C@H](CO)N1C[C@H](C)[C@H](CN(C)Cc2ccccc2)Oc2ccc(NC(=O)Cn3cnnn3)cc2CC1=O,inactive: 1.03
19,C[C@H]1CN([C@@H](C)CO)C(=O)c2cc(NC(=O)Nc3ccc(C(F)(F)F)cc3)ccc2O[C@H]1CN(C)C(=O)Nc1ccccc1,inactive: 1.06
